The test system of this data set is ATP. Put plainly: switch fluorescence ratio, 500 uM ATP over buffer (Cy3 cluster intensity, sum of 5 cycles each) (fold (ratio)); higher = stronger signal-on switching upon ATP binding; sequences stand for … in TCGTCGGCAGCGTCAGATGTGTATAAGAGACAGTTTTTTTTTTTTTTTTTTTTTTTTT…TC. To be noted: aptamer strand: ATP DNA aptamer (quencher-CACCTGGGGGAGTATTGCGGAGGAAGG + anchor), 100 nM annealed; ATP concentration: 500 uM; one replicate. Put shortly: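 Clusters carrying Cy3-labelled switching strands on a modified Illumina MiSeq flow-cell were annealed to 100 nM quencher-labelled ATP aptamer and imaged in selection buffer. They were imaged again after 15 min with 500 uM ATP at 22 °C, over five buffer/ATP cycles with NaOH stripping and re-annealing in between. For each cluster, the fluorescence ratio is the summed Cy3 intensity of the target cycles divided by that of the buffer cycles, averaged per switch-domain sequence. Clusters outside 100-1000 RFU were left out.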

Values marked as one replicate rest on one cluster of the flow cell; about a third of the high ones do not repeat.
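Further: ATP exposure 15 min at 22 °C before imaging.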

For the sequence GTTGTCAACG, the switch fluorescence ratio is 0.986.

TACGTCGGTG: the switch fluorescence ratio was determined as 0.953.

With AGAATGTCCC, the switch fluorescence ratio was 1.02.

For the sequence GCCGGGAAAG, the switch fluorescence ratio was 0.993.

As to GGACATCTAG, the switch fluorescence ratio stood at 1.

Regarding CGTCCGACGG, the switch fluorescence ratio turned out to be 1.24.

With GGTAGGCTGA, the switch fluorescence ratio is 0.988.

For GCCGGGTTA, the switch fluorescence ratio stood at 1.06.

Consider GCAGTTTTCC, for which the switch fluorescence ratio came out at 1.05.

Take TGGGCCAGGT: the switch fluorescence ratio was 1.5.

On to GTAGTATATT, for which the switch fluorescence ratio worked out at 0.998.

In the case of GCAATTATTT, the switch fluorescence ratio worked out at 1.05.

For GAACGTAAAT, the switch fluorescence ratio was determined as 1.15.

TATGTGTCGA: the switch fluorescence ratio was found to be 1.05.

Take TTTGAAAGAC: the switch fluorescence ratio amounted to 1.31.

Take TTCACAGTTG: the switch fluorescence ratio was 0.979.

With GCTCTCGCCC, the switch fluorescence ratio was 1.12.

TGTGGGT: the switch fluorescence ratio came to 0.97.

Take TGCTCGCCTT: the switch fluorescence ratio stood at 0.991.

Take GCTAGCGGGC: the switch fluorescence ratio is 1.03.

For TGTTATCGCC, the switch fluorescence ratio worked out at 0.971.

For TTGAGCCTTA, the switch fluorescence ratio was 0.976.

As for TTTTTAGGCT, the switch fluorescence ratio is 1.02.

Regarding TCTGTTTGG, the switch fluorescence ratio amounted to 1.01.

As to TGTCGATGAG, the switch fluorescence ratio stood at 0.989.

Take AGTGGCGACT: the switch fluorescence ratio is 1.02.

Turning to ACGGGGGATC, the switch fluorescence ratio came out at 1.

As for ATGGCGGGAT, the switch fluorescence ratio was found to be 0.987.

Turning to TTGGTCACAT, the switch fluorescence ratio was 1.01.

Consider GACACCTTAA, for which the switch fluorescence ratio was determined as 1.14.

CCAGTTAAT: the switch fluorescence ratio was 1.

In the case of TAAGGTCCTG, the switch fluorescence ratio turned out to be 1.01.

As for CACGCGGGCA, the switch fluorescence ratio is 0.997.

Turning to GCCCGATTCG, the switch fluorescence ratio came out at 1.06.

On to TCACCCACCT, for which the switch fluorescence ratio is 1.17.

Regarding CAAAGACTAT, the switch fluorescence ratio came to 1.02.

On to GATGTACCTA, for which the switch fluorescence ratio stood at 1.05.

In the case of GATTCCGTGA, the switch fluorescence ratio came to 1.27.

Take GGTTAAGCAG: the switch fluorescence ratio amounted to 1.12.

Turning to GCTAGTAGTG, the switch fluorescence ratio was 0.955.

Regarding GCCGAGCTTT, the switch fluorescence ratio was 1.03.

As to TTAAAGGT, the switch fluorescence ratio was 1.02.

Regarding GAACGAAAAG, the switch fluorescence ratio came to 1.

For GGTCTTCATG, the switch fluorescence ratio amounted to 0.994.

For the sequence GGGACCGCG, the switch fluorescence ratio stood at 0.996.

CGGGCGAATC: the switch fluorescence ratio was 1.01.

As to CTGGCAAAAT, the switch fluorescence ratio worked out at 1.06.

With AGGACAGTGG, the switch fluorescence ratio worked out at 1.

Regarding GCCTGCGATA, the switch fluorescence ratio turned out to be 1.48.

For the sequence GCCCACGCCG, the switch fluorescence ratio amounted to 0.99.

Consider TTAGTTAGCG, for which the switch fluorescence ratio turned out to be 0.968.

Take TTTCGAAGGA: the switch fluorescence ratio worked out at 1.02.

As for TCGTATAT, the switch fluorescence ratio was found to be 1.04.

Take GCGTTCGTTG: the switch fluorescence ratio was 0.983.

On to CATTTCTTGC, for which the switch fluorescence ratio amounted to 0.999.

As to CACCATCGTA, the switch fluorescence ratio was determined as 1.01.

GATAGAGCCG: the switch fluorescence ratio was determined as 1.02.

As for AATAGCCAGC, the switch fluorescence ratio amounted to 1.01.

Take ATACACGGTA: the switch fluorescence ratio worked out at 1.09.

As to AAAGAACTTT, the switch fluorescence ratio is 1.06.

For GGACTTAATT, the switch fluorescence ratio turned out to be 1.

CCCGATTTGC: the switch fluorescence ratio was found to be 1.13.

On to ATGCATGTTA, for which the switch fluorescence ratio was determined as 1.01.

Regarding CCAACGTACC, the switch fluorescence ratio was determined as 1.75.

As to AAAAATAACT, the switch fluorescence ratio was 1.1.

Regarding TCAAGCTAAG, the switch fluorescence ratio amounted to 0.987.

GCGTAACTTG: the switch fluorescence ratio was found to be 1.

These data come from the supplement of paper PMC10126150.
